This passage reports AUC and IC50 results from the supplement of paper PMC4967469.

Lines with a small IC50 respond at low doses; where the fit passes the top or lowest dose, that dose stands as a limit. AUC sums up the same curve from the lowest dose to the 256-fold higher top dose; the more sensitive the line, the further below 1. Any top dose called inferred was derived from the fitted curves, not read from the paper.

Compound in the assay: O=C1NC(=O)/C(=C\c2ccc3nccnc3c2)S1 [AS605240]
The experiment in a line: Viability of human cancer cell lines after 72 h of drug (GDSC screen). Particulars: top dose inferred. The procedure: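 Human cancer cell lines in 384-well plates, medium with 10% serum, drug for 72 h over a 256-fold dose range (nine 2-fold or five 4-fold steps up to the top dose). Adherent lines were fixed and stained with the nucleic acid dye Syto60, suspension lines read with resazurin; signal relative to control wells, capped at 0 and 100%. One two-parameter sigmoid per drug and line, fitted in a mixed model over all curves with the slope shared within a line.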
For the cell line “L-540 (Hodgkin lymphoma, suspension, top dose 20 µM)”, the AUC amounted to 0.901 and the IC50 (as a rule, the concentration that inhibits the measured activity by half) is > 20 µM.

Turning to “L-1236 (Hodgkin lymphoma, suspension, top dose 20 µM)”, the AUC is 0.926 and the 50% inhibitory concentration (IC50) was > 20 µM.

Regarding “LAMA-84 (chronic myeloid leukaemia, suspension, top dose 20 µM)”, the AUC worked out at 0.566 and the IC50 is 1.89 µM.

Turning to “LAN-6 (neuroblastoma, adherent, top dose 20 µM)”, the AUC was 0.875 and the IC50 is > 20 µM.

Turning to “LB373-MEL-D (melanoma, adherent, top dose 20 µM)”, the AUC was found to be 0.873 and the IC50 is 18.6 µM.

For the cell line “LB647-SCLC (small cell lung carcinoma, semi-adherent, top dose 20 µM)”, the AUC stood at 0.916 and the 50% inhibitory concentration (IC50) is > 20 µM.

Regarding “LB771-HNC (head and neck, adherent, top dose 20 µM)”, the AUC is 0.819 and the IC50 amounted to 15.3 µM.

Take “LB831-BLC (bladder, adherent, top dose 20 µM)”: the AUC was 0.905 and the IC50 was > 20 µM.

Take “LB996-RCC (kidney, adherent, top dose 20 µM)”: the AUC stood at 0.983 and the IC50 was > 20 µM.

For the cell line “LB1047-RCC (kidney, adherent, top dose 20 µM)”, the AUC was found to be 0.848 and the half-inhibitory concentration (IC50) came out at 17.8 µM.

As to “LB2241-RCC (kidney, adherent, top dose 20 µM)”, the AUC stood at 0.984 and the half-maximal inhibitory concentration (IC50) was > 20 µM.

As to “LB2518-MEL (melanoma, adherent, top dose 20 µM)”, the AUC worked out at 0.373 and the IC50 worked out at 0.546 µM.

In the case of “LC4-1 (lymphoblastic leukaemia, suspension, top dose 20 µM)”, the AUC was found to be 0.713 and the IC50 stood at 5.38 µM.

On to “LC-1-sq (lung squamous cell carcinoma, adherent, top dose 20 µM)”, for which the AUC came to 0.898 and the IC50 was > 20 µM.

Turning to “LC-2-ad (lung adenocarcinoma, adherent, top dose 20 µM)”, the AUC amounted to 0.847 and the IC50 was 15.4 µM.

Take “LCLC-97TM1 (large cell lung carcinoma, adherent, top dose 20 µM)”: the AUC was found to be 0.81 and the IC50 is 11.8 µM.

Turning to “LCLC-103H (large cell lung carcinoma, adherent, top dose 20 µM)”, the AUC was determined as 0.913 and the IC50 was > 20 µM.

With “LK-2 (lung squamous cell carcinoma, adherent, top dose 20 µM)”, the AUC was 0.936 and the IC50 was > 20 µM.

For “LN-18 (glioma, adherent, top dose 20 µM)”, the AUC was determined as 0.947 and the IC50 is > 20 µM.

As for “LN-229 (glioma, adherent, top dose 20 µM)”, the AUC is 0.818 and the half-inhibitory concentration (IC50) came out at 11.2 µM.

As for “LN-405 (glioma, adherent, top dose 20 µM)”, the AUC was found to be 0.873 and the IC50 is > 20 µM.

Take “LNCaP-Clone-FGC (prostate, adherent, top dose 20 µM)”: the AUC amounted to 0.962 and the IC50 was > 20 µM.

For “LNZTA3WT4 (glioma, adherent, top dose 20 µM)”, the AUC is 0.949 and the concentration for half-maximal inhibition (IC50) was > 20 µM.

Take “LOU-NH91 (lung squamous cell carcinoma, adherent, top dose 20 µM)”: the AUC is 0.938 and the IC50 is > 20 µM.

In the case of “LOUCY (T-cell lymphoblastic leukaemia, suspension, top dose 20 µM)”, the AUC turned out to be 0.412 and the IC50 turned out to be 0.752 µM.

In the case of “LOXIMVI (melanoma, semi-adherent, top dose 20 µM)”, the AUC was 0.885 and the IC50 stood at 17.6 µM.

With “LP-1 (myeloma, suspension, top dose 20 µM)”, the AUC is 0.886 and the 50% inhibitory concentration (IC50) is 15.6 µM.

Turning to “LS-123 (large intestine, adherent, top dose 20 µM)”, the AUC stood at 0.719 and the IC50 amounted to 6.52 µM.

On to “LS-180 (large intestine, adherent, top dose 20 µM)”, for which the AUC was determined as 0.884 and the 50% inhibitory concentration (IC50) was > 20 µM.

With “LS-411N (large intestine, adherent, top dose 20 µM)”, the AUC stood at 0.935 and the concentration for half-maximal inhibition (IC50) was > 20 µM.

With “LS-513 (large intestine, adherent, top dose 20 µM)”, the AUC was found to be 0.965 and the IC50 is > 20 µM.

For the cell line “LS-1034 (large intestine, adherent, top dose 20 µM)”, the AUC is 0.977 and the IC50 is > 20 µM.

Turning to “LU-65 (large cell lung carcinoma, suspension, top dose 20 µM)”, the AUC turned out to be 0.662 and the 50% inhibitory concentration (IC50) is 3.84 µM.

Regarding “LU-99A (large cell lung carcinoma, adherent, top dose 20 µM)”, the AUC came to 0.891 and the 50% inhibitory concentration (IC50) is > 20 µM.

For “LU-134-A (small cell lung carcinoma, suspension, top dose 20 µM)”, the AUC came to 0.954 and the half-maximal inhibitory concentration (IC50) is > 20 µM.

For “LU-135 (small cell lung carcinoma, suspension, top dose 20 µM)”, the AUC stood at 0.989 and the IC50 was > 20 µM.

Regarding “LU-139 (small cell lung carcinoma, suspension, top dose 20 µM)”, the AUC is 0.756 and the IC50 came to 8.65 µM.

On to “LU-165 (small cell lung carcinoma, suspension, top dose 20 µM)”, for which the AUC worked out at 0.988 and the 50% inhibitory concentration (IC50) is > 20 µM.

Regarding “LXF-289 (lung adenocarcinoma, adherent, top dose 20 µM)”, the AUC turned out to be 0.872 and the IC50 was 18.4 µM.

For “LoVo (large intestine, adherent, top dose 20 µM)”, the AUC was determined as 0.86 and the half-maximal inhibitory concentration (IC50) stood at 17.2 µM.

In the case of “M14 (melanoma, adherent, top dose 20 µM)”, the AUC stood at 0.797 and the concentration for half-maximal inhibition (IC50) amounted to 10 µM.

For the cell line “M059J (glioma, adherent, top dose 20 µM)”, the AUC turned out to be 0.878 and the IC50 is > 20 µM.

For “MC116 (B-cell lymphoma, suspension, top dose 20 µM)”, the AUC stood at 0.894 and the 50% inhibitory concentration (IC50) turned out to be 11.4 µM.

Turning to “MC-CAR (haematopoietic neoplasm, suspension, top dose 20 µM)”, the AUC was determined as 0.553 and the IC50 came to 1.72 µM.

Turning to “MC-IXC (neuroblastoma, adherent, top dose 20 µM)”, the AUC amounted to 0.944 and the IC50 was > 20 µM.

For MCF7 (breast, adherent, top dose 20 µM), the AUC came to 0.961 and the IC50 was > 20 µM.

Take “MDA-MB-157 (breast, adherent, top dose 20 µM)”: the AUC stood at 0.87 and the concentration for half-maximal inhibition (IC50) was 19.5 µM.

As for “MDA-MB-175-VII (breast, adherent, top dose 20 µM)”, the AUC worked out at 0.814 and the 50% inhibitory concentration (IC50) amounted to 12.3 µM.

Regarding “MDA-MB-231 (breast, adherent, top dose 20 µM)”, the AUC came out at 0.873 and the half-inhibitory concentration (IC50) is > 20 µM.

Turning to “MDA-MB-330 (breast, adherent, top dose 20 µM)”, the AUC came to 0.958 and the concentration for half-maximal inhibition (IC50) was > 20 µM.

On to “MDA-MB-361 (breast, adherent, top dose 20 µM)”, for which the AUC stood at 0.89 and the IC50 was > 20 µM.

“MDA-MB-415 (breast, adherent, top dose 20 µM)”: the AUC turned out to be 0.962 and the IC50 is > 20 µM.

With “MDA-MB-436 (breast, adherent, top dose 20 µM)”, the AUC was 0.963 and the half-maximal inhibitory concentration (IC50) was > 20 µM.

With “MDA-MB-453 (breast, adherent, top dose 20 µM)”, the AUC came out at 0.504 and the IC50 amounted to 1.28 µM.

“MDA-MB-468 (breast, adherent, top dose 20 µM)”: the AUC came to 0.875 and the IC50 came out at 18.4 µM.

Take “MDST8 (large intestine, adherent, top dose 20 µM)”: the AUC is 0.836 and the concentration for half-maximal inhibition (IC50) was 13.2 µM.

As to “ME-1 (acute myeloid leukaemia, suspension, top dose 20 µM)”, the AUC worked out at 0.378 and the IC50 stood at 0.562 µM.

For the cell line “ME-180 (cervix, adherent, top dose 20 µM)”, the AUC worked out at 0.699 and the IC50 turned out to be 4.65 µM.

On to “MEG-01 (chronic myeloid leukaemia, suspension, top dose 20 µM)”, for which the AUC turned out to be 0.445 and the half-inhibitory concentration (IC50) came to 0.894 µM.

As for “MEL-JUSO (melanoma, adherent, top dose 20 µM)”, the AUC worked out at 0.604 and the IC50 came to 2.49 µM.

Take “MES-SA (uterus, adherent, top dose 20 µM)”: the AUC came out at 0.949 and the half-inhibitory concentration (IC50) is > 20 µM.

As to “MFE-280 (endometrium, adherent, top dose 20 µM)”, the AUC came to 0.621 and the IC50 was 2.95 µM.

“MFE-296 (endometrium, adherent, top dose 20 µM)”: the AUC worked out at 0.959 and the IC50 is > 20 µM.

In the case of “MFE-319 (endometrium, adherent, top dose 20 µM)”, the AUC amounted to 0.838 and the half-maximal inhibitory concentration (IC50) is 12.9 µM.

Turning to “MFH-ino (soft tissue, adherent, top dose 20 µM)”, the AUC stood at 0.91 and the concentration for half-maximal inhibition (IC50) was > 20 µM.
